# Test results: PubChem BioAssay AID624417 (National Center for Advancing Translational Sciences (NCATS), 2012)
# Screen size: about 410,000 compounds; about 6,400 (1.6%) were called active. Inconclusive results (about 20%) are left out. Calls come from the whole dose curve; as a rule, active = well fitted inhibition curve with a large enough effect; inconclusive = small, poorly fitted or top-dose-only effect; inactive = no such curve, though single readings can be large or run the other way. A structure can be active in one record and inactive in another. Certain results were filed several times, with different values. The other results are left out here. The source may hold further records. The records of an entry are repeats across runs, samples, wells, individuals or studies. Records carry a tag for their origin. Letters hold for one entry only.
# Biological target: Glucagon-like peptide 1 receptor (Homo sapiens) (UniProt P43220)
# UniProt P43220, sequence (P43220 whole entry, looked up): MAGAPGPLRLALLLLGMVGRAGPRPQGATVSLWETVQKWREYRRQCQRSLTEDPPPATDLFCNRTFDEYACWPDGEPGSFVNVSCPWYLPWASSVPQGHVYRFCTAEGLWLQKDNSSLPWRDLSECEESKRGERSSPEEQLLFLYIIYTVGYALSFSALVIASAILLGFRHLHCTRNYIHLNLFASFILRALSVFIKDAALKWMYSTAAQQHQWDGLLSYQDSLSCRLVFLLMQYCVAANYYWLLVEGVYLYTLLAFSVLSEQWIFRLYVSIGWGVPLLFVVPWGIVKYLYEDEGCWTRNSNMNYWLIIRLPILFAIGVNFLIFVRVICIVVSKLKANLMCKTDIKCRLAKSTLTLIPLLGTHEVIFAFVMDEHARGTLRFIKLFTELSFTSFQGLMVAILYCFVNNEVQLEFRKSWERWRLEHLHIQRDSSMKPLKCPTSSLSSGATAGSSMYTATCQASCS
# Experiment: qHTS of GLP-1 Receptor Inverse Agonists (Inhibition Mode); note: nearly all actives have a fitted effect of over 55% in size
# Conditions: HEK293 GLP-1R CRE-luciferase, luminescence, 24 h, GLP-1R form is constitutively active; series mostly up to 38.3 µM
# Source text: The overall goal of this project was to develop a novel assay for discovering small molecule ligands for class B1 G protein-coupled receptors (GPCRs). Very few agonists (or inverse agonists in inhibition mode) with generally weak activity for this entire group of physiologically important receptors are known to date. To establish proof-of-principle that this critical bottleneck can be overcome with a suitable screening approach, our studies focused on the class B1 receptor for glucagon-like peptide-1 (GLP-1R), a potential therapeutic target for diabetes and neurodegenerative disease. The assay was developed using a cell-based functional readout. Toward this goal, stably transfected HEK293 cell clones were established that co-express (i) a cAMP-responsive luciferase reporter gene, and (ii) constitutively active GLP-1R that upon ligand interaction inhibit (inverse agonists) the luciferase activity. […]
# Six ul of cell suspension (200 cells/uL in DMEM + 10% Nu serum + 1% pen-strep) is dispensed in a white solid 1536-well plate. […] A luminescence read is obtained on the PerkinElmer Viewlux after 12 min incubation at room temperature.
# Potency is the fitted concentration of half-maximal effect.
row,Structure (SMILES),Potency
1,CCC1CCCCN1CCCNC(=O)c1cc2c(Cl)nc3ccccc3c2s1 (stereo unspecified),inactive [sample A] and active: 3.98 µM [sample B]
